Laboratory results taken from paper PMC4336329 (PLoS ONE, 2015).
About 14,000 (4.5%) of roughly 310,000 compounds showed an effect of 50% or more. Effects have a minus sign here. Some of the results follow.

These molecules were tested against human ether-à-go-go-related gene (hERG) potassium channel (human, UniProt Q12809) (assay: primary screen, population patch clamp on CHO cells stably expressing hERG).
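Further: peak tail current of the secondary pulse compared with the same well before compound.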

human ether-à-go-go-related gene (hERG) potassium channel, sequence (Q12809 whole entry, looked up): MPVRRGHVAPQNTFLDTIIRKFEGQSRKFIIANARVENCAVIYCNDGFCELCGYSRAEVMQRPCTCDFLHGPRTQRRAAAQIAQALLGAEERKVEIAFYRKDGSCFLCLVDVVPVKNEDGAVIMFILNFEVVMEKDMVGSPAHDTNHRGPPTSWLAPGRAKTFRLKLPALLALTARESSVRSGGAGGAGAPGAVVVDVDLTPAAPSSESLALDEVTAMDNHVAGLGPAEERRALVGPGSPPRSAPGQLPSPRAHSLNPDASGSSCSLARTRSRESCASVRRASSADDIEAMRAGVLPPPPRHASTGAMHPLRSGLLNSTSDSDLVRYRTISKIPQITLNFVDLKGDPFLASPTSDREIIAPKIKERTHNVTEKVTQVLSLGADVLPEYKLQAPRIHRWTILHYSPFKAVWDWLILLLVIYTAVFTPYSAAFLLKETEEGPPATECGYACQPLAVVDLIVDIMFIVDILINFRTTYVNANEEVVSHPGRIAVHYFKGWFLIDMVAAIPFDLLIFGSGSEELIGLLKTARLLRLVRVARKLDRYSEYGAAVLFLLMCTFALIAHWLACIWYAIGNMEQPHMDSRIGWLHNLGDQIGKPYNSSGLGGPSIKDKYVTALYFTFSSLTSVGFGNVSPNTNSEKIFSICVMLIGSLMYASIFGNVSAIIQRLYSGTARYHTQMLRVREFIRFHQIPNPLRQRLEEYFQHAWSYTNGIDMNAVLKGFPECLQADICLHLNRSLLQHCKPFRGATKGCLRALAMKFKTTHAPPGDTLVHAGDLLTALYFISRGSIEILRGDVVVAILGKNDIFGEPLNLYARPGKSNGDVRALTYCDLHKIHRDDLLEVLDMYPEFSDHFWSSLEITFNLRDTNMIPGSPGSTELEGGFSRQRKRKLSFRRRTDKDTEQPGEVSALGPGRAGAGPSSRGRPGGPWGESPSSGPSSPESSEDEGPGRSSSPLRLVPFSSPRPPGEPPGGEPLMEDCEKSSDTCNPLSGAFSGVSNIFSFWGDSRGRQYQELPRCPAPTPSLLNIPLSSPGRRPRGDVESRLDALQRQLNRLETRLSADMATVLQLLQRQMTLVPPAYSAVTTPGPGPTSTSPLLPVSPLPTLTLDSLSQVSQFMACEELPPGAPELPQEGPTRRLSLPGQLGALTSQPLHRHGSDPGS

Structure (SMILES) | hERG current change (%, negative = inhibition) at 10uM
CCOc1ccccc1CNC(=O)Cn1nc(C)c2c(C)n(-c3ccc(C)cc3)nc2c1=O | -4.68%
COC(=O)CN(C)C(=O)c1ccc(OC2CCN(S(=O)(=O)N(C)C)CC2)cc1 | 3.7%
c1ccc(SCc2cn(C[C@H]3CC[C@@H]([C@@H]4CC[C@H](Cn5cc(CSc6ccccc6)nn5)O4)O3)nn2)cc1 | -62.1%
CCCn1c(=O)c(F)cn(Cc2ccc(OC)c([N+](=O)[O-])c2)c1=O | -11.8%
Cc1ccc(-c2csc3nnc(SCC(=O)NCc4ccco4)n23)cc1 | -17.6%
Nc1ccc(N=Nc2ccccc2Cl)c(N)n1 | 10.7%
CCC(=O)NC(=S)Nc1ccc(S(=O)(=O)NC2CCCCC2)cc1 | -4.84%
CC[C@@H](C)[C@H](NC(=O)CNC(=O)Cc1c(C)c2c(cc(C)c3c(C)coc32)oc1=O)C(=O)O | 0.0635%
Cc1ccc(S(=O)(=O)N2C(=O)/C(=C3\SC(=S)NC3=O)c3ccccc32)cc1 | 10%
Cc1ccc2cccc(OCC(=O)N3CC(C)CC(C)C3)c2n1 (stereo not shown) | 15.4%
Cc1scc(-c2n[nH]c(=S)n2Cc2ccccc2)c1C | 4.69%
COC(=O)c1ccc(CNC(=O)C23CC4CC(CC(C4)C2)C3)cc1 | -8.56%
CCOC(=O)CNC(=O)CSc1nnc(-c2cccc(C)c2)n1-c1ccc(OC)cc1 | -62%
CCn1c(=O)c(C(=O)NNC(=O)c2ccccc2)c(O)c2ccccc21 | 11.9%
CC(C)CCN(CCC(C)C)C(CO)(CO)CO | 16.9%
Cl.O=C(COc1ccccc1Cc1ccccc1)NCCCN1CCOCC1 | -32.1%
COc1cccc(-c2c(C(=O)N/N=C(\C)c3ccco3)nnn2-c2nonc2N)c1 | 9.95%
Cc1ccc2c(c1)N(C(=O)CCC(=O)NCc1ccccn1)CC(C)O2 (stereo not shown) | -7.23%
CCc1nnc(NC(=O)CSc2nnc(C(C)NC(=O)c3ccccc3F)n2C)s1 (stereo not shown) | 9.22%
CC(=O)c1c(N=CN(C)C)nc(C)nc1-c1ccccc1 | 2.08%
CC(C)c1ccccc1NC(=O)c1cccc(NC(=O)c2ccccc2)c1 | -17.2%
CCCN(CCC)CC(O)CN1C(=O)N(CN2C(=O)N(CC(O)CN(CCC)CCC)C(=O)C2(C)C)C(C)(C)C1=O (stereo not shown) | 14.4%

Structure (SMILES) | hERG current change (%, negative = inhibition) at 10uM
Cc1cccc(NC(=O)CC(C)S(=O)(=O)c2ccc3c(c2)NC(=O)CO3)c1C (stereo not shown) | -4.88%
Nc1ccc(N(c2ccccc2)c2ccc(N)cc2)cc1 | -12.5%
COc1ccc(C)cc1NS(=O)(=O)c1ccc2c(c1)NC(=O)C(C)S2 (stereo not shown) | 2.3%
CCOC(=O)N1CCN(Cc2nc3cc(NC(=O)CC)ccc3n2C)CC1 | 19.8%
CCCn1cc(CN2CCc3ccc(NC(=O)C4CCCO4)cc3C2)c(C)n1 (stereo not shown) | 14.7%
CSCCC(NC(=O)c1cc(C)oc1C)C(=O)O (stereo not shown) | -10%
O=C(Cc1cccs1)N=Nc1c(O)[nH]c2ccccc12 | 7.07%
Cc1ccccc1C(=O)Nc1nnc(-c2ccc(C(C)(C)C)cc2)s1 | 13%
COc1cccc(NC(=O)NC2CCCCC2C)c1 (stereo not shown) | 0.121%
O=C(O)C(=O)O.O=C(c1ccccc1)N1CCN(CC(O)Cn2ccc3ccccc32)CC1 (stereo not shown) | -31.5%
C=CCN(c1ccc(C(=O)Nc2ccc(NC(C)=O)cc2)cc1)S(C)(=O)=O | 18.7%
O=C(O)CSCc1c(F)cccc1Cl | -2.09%
Cc1cc(C)cc(NC(=O)COC(=O)Cc2ccccc2F)c1 | -4.21%
O=C1C=C(c2ccc3ncccc3c2)C[C@@H](c2ccc(F)cc2)C1 | -62.5%
COC(=O)C1=C(c2ccc(OC)c(OC)c2)C[C@@H]2CC[C@H]1N2C(=O)NCc1cc(C)oc1C(F)(F)F | 1.86%
Cc1cc(C)c2nc(N3C(=O)C(O)=C(C(=O)c4ccco4)C3c3cccc(O)c3)sc2c1 (stereo not shown) | 10.7%
COc1ccc(C(=O)Nc2nnc(Cc3ccccc3)s2)c(OC)c1 | -4.24%
CCOC(=O)c1c(C)[nH]c(C(=O)C(Cc2ccccc2)N(C)C)c1C.Cl (stereo not shown) | -9.75%
CN1CCN(C(=O)CNC(=O)Cc2ccc(Cl)cc2)CC1 | 5.31%
Cc1cc2ccccn2c1C(=O)c1ccc([N+](=O)[O-])cc1[N+](=O)[O-] | 23.4%
COc1ccccc1CNC(=O)C1CC(=O)N(c2ccc(C)c(C)c2)C1 (stereo not shown) | 2.85%
